Source: the supplement of paper PMC4166925
± gives the standard deviation of the averaged measurements. The full ranking holds about 33,000 sequences; the median of “E-score (dimensionless, -0.5 to 0.5)” is about -0.046, and the highest 2% start at about 0.36. The list shows a part of the results.

tested on: T1, SpTbr T-box DNA-binding domain (GST fusion); assay: PBM E-score of 8-mer (E-score (dimensionless, -0.5 to 0.5)); Tbr is Tbrain of the sea star Patiria miniata (Pm) or the sea urchin Strongylocentrotus purpuratus (Sp); higher = stronger binding preference; most listed sequences are background and not binding sites; conditions: the construct has about 5 more residues each side
T1 sequence: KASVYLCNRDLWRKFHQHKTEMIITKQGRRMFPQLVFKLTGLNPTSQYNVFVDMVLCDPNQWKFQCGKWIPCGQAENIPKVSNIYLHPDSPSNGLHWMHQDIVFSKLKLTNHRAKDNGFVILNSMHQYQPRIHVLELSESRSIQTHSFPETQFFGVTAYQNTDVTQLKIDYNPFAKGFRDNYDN
In short: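 Primer extension turned Universal Agilent oligonucleotide arrays double-stranded. They were incubated with 200 nM protein in PBS (pH 7.5); the protein was a GST-fused Tbr T-box DNA-binding domain expressed in BL21 E. coli at 20 °C and purified on glutathione. Every ungapped 8-mer was scored from the scanned, quantified probe intensities, and the Universal PBM Analysis Suite gave each an enrichment E-score averaged over duplicate arrays.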

**Q.** Which “PBM E-score of 8-mer” value does the source give for AGTAAGAC here?
**A.** -0.0827 ± 0.043

**Q.** How did the “PBM E-score of 8-mer” value turn out when CCGAAGAA was run?
**A.** -0.2529 ± 0.00038

**Q.** How did the “PBM E-score of 8-mer” value turn out when ACGAACCC was run?
**A.** -0.123 ± 0.023

**Q.** For TATACTCA, which “PBM E-score of 8-mer” value is on record?
**A.** -0.0865 ± 0.097

**Q.** With ATAATTTC as the sequence, how does the “PBM E-score of 8-mer” value read?
**A.** -0.158 ± 0.034

**Q.** For GCTCCTCA, which “PBM E-score of 8-mer” value is on record?
**A.** -0.076 ± 0.0082

**Q.** Which “PBM E-score of 8-mer” value does the source give for AGTCAGTA here?
**A.** 0.00111 ± 0.045

**Q.** For GCCAAACC, which “PBM E-score of 8-mer” value is on record?
**A.** 0.0635 ± 0.08

**Q.** For ATCCTATC, which “PBM E-score of 8-mer” value is on record?
**A.** -0.124 ± 0.0047

**Q.** GTGAGACA was tested. Which “PBM E-score of 8-mer” value did it give?
**A.** 0.292 ± 0.014

**Q.** Which “PBM E-score of 8-mer” value does the source give for ATAGGAAA here?
**A.** -0.233 ± 0.02

**Q.** AGTCCTTC was tested. Which “PBM E-score of 8-mer” value did it give?
**A.** -0.127 ± 0.017

**Q.** Which “PBM E-score of 8-mer” value does the source give for CGATGCCG here?
**A.** -0.0132 ± 0.097

**Q.** For CCCATCCA, which “PBM E-score of 8-mer” value is on record?
**A.** -0.288 ± 0.062

**Q.** How did the “PBM E-score of 8-mer” value turn out when CAAAGCAA was run?
**A.** -0.0076 ± 0.051

**Q.** CGAGCGGC was tested. Which “PBM E-score of 8-mer” value did it give?
**A.** -0.0649 ± 0.08

**Q.** For GCCGGCCA, which “PBM E-score of 8-mer” value is on record?
**A.** 0.109 ± 0.0074

**Q.** Which “PBM E-score of 8-mer” value does the source give for ACTCAACC here?
**A.** -0.122 ± 0.055

**Q.** With AGTCAGTC as the sequence, how does the “PBM E-score of 8-mer” value read?
**A.** -0.1 ± 0.012

**Q.** GAGCTAAC was tested. Which “PBM E-score of 8-mer” value did it give?
**A.** 0.0914 ± 0.0041

**Q.** AATTCCGG was tested. Which “PBM E-score of 8-mer” value did it give?
**A.** -0.121 ± 0.019

**Q.** Which “PBM E-score of 8-mer” value does the source give for ACCCCAAT here?
**A.** -0.1311 ± 0.00098

**Q.** With CTCGCGTC as the sequence, how does the “PBM E-score of 8-mer” value read?
**A.** 0.134 ± 0.013

**Q.** CAATATAC was tested. Which “PBM E-score of 8-mer” value did it give?
**A.** -0.0785 ± 0.083

**Q.** How did the “PBM E-score of 8-mer” value turn out when AGTTGACA was run?
**A.** 0.4138 ± 0.001

**Q.** With CCGGCGTC as the sequence, how does the “PBM E-score of 8-mer” value read?
**A.** 0.067 ± 0.035

**Q.** With ACCGCATA as the sequence, how does the “PBM E-score of 8-mer” value read?
**A.** -0.13 ± 0.074

**Q.** How did the “PBM E-score of 8-mer” value turn out when ACACCGAT was run?
**A.** 0.164 ± 0.0045

**Q.** CCTACATC was tested. Which “PBM E-score of 8-mer” value did it give?
**A.** -0.228 ± 0.0069

**Q.** With GCTCATCA as the sequence, how does the “PBM E-score of 8-mer” value read?
**A.** -0.109 ± 0.034

**Q.** Which “PBM E-score of 8-mer” value does the source give for ACAGACAC here?
**A.** 0.226 ± 0.0037

**Q.** With CGTGCTTA as the sequence, how does the “PBM E-score of 8-mer” value read?
**A.** -0.104 ± 0.08

**Q.** For ACTATTCT, which “PBM E-score of 8-mer” value is on record?
**A.** -0.0613 ± 0.023

**Q.** Which “PBM E-score of 8-mer” value does the source give for GCCATCCC here?
**A.** -0.256 ± 0.014

**Q.** CCAAGGAC was tested. Which “PBM E-score of 8-mer” value did it give?
**A.** -0.0655 ± 0.051

**Q.** CAAGCTGC was tested. Which “PBM E-score of 8-mer” value did it give?
**A.** -0.0174 ± 0.056

**Q.** CAATAACA was tested. Which “PBM E-score of 8-mer” value did it give?
**A.** 0.0759 ± 0.045

**Q.** AGTGCTAC was tested. Which “PBM E-score of 8-mer” value did it give?
**A.** 0.245 ± 0.027

**Q.** With AGAATTGC as the sequence, how does the “PBM E-score of 8-mer” value read?
**A.** 0.119 ± 0.07

**Q.** How did the “PBM E-score of 8-mer” value turn out when TGAGCAAA was run?
**A.** 0.0407 ± 0.064

**Q.** AGAACGCA was tested. Which “PBM E-score of 8-mer” value did it give?
**A.** -0.111 ± 0.06

**Q.** For TCGATCAA, which “PBM E-score of 8-mer” value is on record?
**A.** 0.035 ± 0.0039

**Q.** For TCTGTCAA, which “PBM E-score of 8-mer” value is on record?
**A.** 0.109 ± 0.046

**Q.** For ATGTCCGC, which “PBM E-score of 8-mer” value is on record?
**A.** -0.21 ± 0.037

**Q.** Which “PBM E-score of 8-mer” value does the source give for CTGTCTGA here?
**A.** 0.0118 ± 0.0004

**Q.** For TTAGATAA, which “PBM E-score of 8-mer” value is on record?
**A.** -0.211 ± 0.0079

**Q.** CGTGCATA was tested. Which “PBM E-score of 8-mer” value did it give?
**A.** -0.187 ± 0.097

**Q.** How did the “PBM E-score of 8-mer” value turn out when GACATCGC was run?
**A.** 0.0769 ± 0.043

**Q.** For ATAAGGTG, which “PBM E-score of 8-mer” value is on record?
**A.** 0.336 ± 0.015

**Q.** With ATGGTCCA as the sequence, how does the “PBM E-score of 8-mer” value read?
**A.** -0.188 ± 0.044

**Q.** Which “PBM E-score of 8-mer” value does the source give for TCGGACAA here?
**A.** 0.033 ± 0.06

**Q.** For GAATTATC, which “PBM E-score of 8-mer” value is on record?
**A.** -0.114 ± 0.015

**Q.** How did the “PBM E-score of 8-mer” value turn out when CACAAAAC was run?
**A.** 0.182 ± 0.058

**Q.** For CCCCATCC, which “PBM E-score of 8-mer” value is on record?
**A.** -0.201 ± 0.014

**Q.** With CTCGTATC as the sequence, how does the “PBM E-score of 8-mer” value read?
**A.** -0.0329 ± 0.013

**Q.** With CAACAGTC as the sequence, how does the “PBM E-score of 8-mer” value read?
**A.** -0.0439 ± 0.081

**Q.** For CGGTTTCC, which “PBM E-score of 8-mer” value is on record?
**A.** 0.0475 ± 0.036

**Q.** Which “PBM E-score of 8-mer” value does the source give for AATCACGA here?
**A.** 0.0962 ± 0.037

**Q.** Which “PBM E-score of 8-mer” value does the source give for CCCTAGGA here?
**A.** -0.0695 ± 0.011

**Q.** How did the “PBM E-score of 8-mer” value turn out when AGGTACAT was run?
**A.** -0.303 ± 0.029

**Q.** With ATCTTGTG as the sequence, how does the “PBM E-score of 8-mer” value read?
**A.** 0.0445 ± 0.042

**Q.** AAGGAAGT was tested. Which “PBM E-score of 8-mer” value did it give?
**A.** 0.0406 ± 0.022

**Q.** How did the “PBM E-score of 8-mer” value turn out when CATAACCG was run?
**A.** -0.0598 ± 0.014

**Q.** With CCCCGGCC as the sequence, how does the “PBM E-score of 8-mer” value read?
**A.** -0.0578 ± 0.024

**Q.** Which “PBM E-score of 8-mer” value does the source give for ATCCTCAG here?
**A.** -0.0926 ± 0.023

**Q.** With CGCCTCGA as the sequence, how does the “PBM E-score of 8-mer” value read?
**A.** 0.139 ± 0.028

**Q.** How did the “PBM E-score of 8-mer” value turn out when AACAAAGC was run?
**A.** 0.00155 ± 0.04

**Q.** How did the “PBM E-score of 8-mer” value turn out when ACGCAAAA was run?
**A.** 0.17 ± 0.029

**Q.** For CCCCTACA, which “PBM E-score of 8-mer” value is on record?
**A.** -0.0318 ± 0.01

**Q.** How did the “PBM E-score of 8-mer” value turn out when AGTTTCAT was run?
**A.** -0.233 ± 0.01

**Q.** GCAGCATA was tested. Which “PBM E-score of 8-mer” value did it give?
**A.** -0.0383 ± 0.02

**Q.** With CCACCGCA as the sequence, how does the “PBM E-score of 8-mer” value read?
**A.** -0.033 ± 0.068

**Q.** TACATTCA was tested. Which “PBM E-score of 8-mer” value did it give?
**A.** -0.116 ± 0.014

**Q.** TACAGACA was tested. Which “PBM E-score of 8-mer” value did it give?
**A.** 0.0916 ± 0.02

**Q.** With GGTTTTAC as the sequence, how does the “PBM E-score of 8-mer” value read?
**A.** -0.168 ± 0.064

**Q.** Which “PBM E-score of 8-mer” value does the source give for CCTTCCGA here?
**A.** -0.115 ± 0.027

**Q.** For TGACGACA, which “PBM E-score of 8-mer” value is on record?
**A.** 0.27 ± 0.0041

**Q.** CCCGCGCA was tested. Which “PBM E-score of 8-mer” value did it give?
**A.** 0.113 ± 0.026

**Q.** AACGGTAG was tested. Which “PBM E-score of 8-mer” value did it give?
**A.** -0.0788 ± 0.046

**Q.** With GCACTGGC as the sequence, how does the “PBM E-score of 8-mer” value read?
**A.** -0.172 ± 0.031

**Q.** ATGCTTAC was tested. Which “PBM E-score of 8-mer” value did it give?
**A.** -0.0604 ± 0.05

**Q.** With CTTCGAAG as the sequence, how does the “PBM E-score of 8-mer” value read?
**A.** 0.0724 ± 0.0063

**Q.** For GATCGTGC, which “PBM E-score of 8-mer” value is on record?
**A.** 0.111 ± 0.02

**Q.** For GAAAAGCA, which “PBM E-score of 8-mer” value is on record?
**A.** -0.0363 ± 0.0088

**Q.** With CACCAGAC as the sequence, how does the “PBM E-score of 8-mer” value read?
**A.** 0.0712 ± 0.097

**Q.** Which “PBM E-score of 8-mer” value does the source give for CCGCCGCC here?
**A.** 0.0492 ± 0.013
